Measured values as given in patent publication US11891445 (ABL BIO, dated 2024).

T1: B7-1 (Sino Biological, Cat #: 10698-H08H) (human, UniProt P33681 35-242)
T1 construct: extracellular domain; Bought
T1 sequence (looked up): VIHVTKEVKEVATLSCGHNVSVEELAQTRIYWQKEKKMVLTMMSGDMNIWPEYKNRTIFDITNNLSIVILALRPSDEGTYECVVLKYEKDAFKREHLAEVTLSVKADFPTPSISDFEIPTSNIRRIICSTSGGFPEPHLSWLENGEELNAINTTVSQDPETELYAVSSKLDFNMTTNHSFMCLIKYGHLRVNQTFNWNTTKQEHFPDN

T2: B7-2 (Sino Biological, Cat #: 10699-H08H) (human, UniProt P42081 24-247)
T2 construct: extracellular domain; Bought
T2 sequence (looked up): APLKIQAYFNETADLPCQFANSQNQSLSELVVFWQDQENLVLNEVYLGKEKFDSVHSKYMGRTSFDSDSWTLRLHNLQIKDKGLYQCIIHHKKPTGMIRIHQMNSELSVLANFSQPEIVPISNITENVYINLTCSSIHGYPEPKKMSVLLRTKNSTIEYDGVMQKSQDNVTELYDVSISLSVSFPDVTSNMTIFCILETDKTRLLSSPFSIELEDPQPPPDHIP

T3: B7-DC (Sino Biological, Cat #: 10292-H08H) (human, UniProt Q9BQ51 20-220)
T3 construct: extracellular domain; Bought
T3 sequence (looked up): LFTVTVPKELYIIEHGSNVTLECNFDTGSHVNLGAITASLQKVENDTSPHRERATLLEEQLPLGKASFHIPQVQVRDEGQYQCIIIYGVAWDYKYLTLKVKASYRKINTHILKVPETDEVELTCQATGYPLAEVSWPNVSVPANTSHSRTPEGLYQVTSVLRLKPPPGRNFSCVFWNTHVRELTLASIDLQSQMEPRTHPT

T4: B7-H5 (Sino Biological, Cat #: 13482-H08H) (human, UniProt Q9H7M9 33-194)
T4 construct: extracellular domain; Bought
T4 sequence (looked up): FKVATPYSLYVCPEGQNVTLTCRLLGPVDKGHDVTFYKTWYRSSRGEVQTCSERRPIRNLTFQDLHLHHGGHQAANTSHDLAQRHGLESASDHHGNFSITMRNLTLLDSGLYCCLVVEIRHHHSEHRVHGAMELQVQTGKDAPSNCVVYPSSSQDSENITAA

T5: B7-H6 (Sino Biological, Cat #: 16140-H08H) (human, UniProt Q68D85 25-262)
T5 construct: extracellular domain; Bought
T5 sequence (looked up): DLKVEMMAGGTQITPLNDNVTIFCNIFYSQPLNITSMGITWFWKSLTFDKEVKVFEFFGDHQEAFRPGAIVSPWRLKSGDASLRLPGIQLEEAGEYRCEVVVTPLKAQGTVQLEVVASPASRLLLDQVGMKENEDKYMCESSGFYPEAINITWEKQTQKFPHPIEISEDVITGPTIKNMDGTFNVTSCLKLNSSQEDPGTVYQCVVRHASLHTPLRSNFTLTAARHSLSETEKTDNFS

T6: B7-H7 (Sino Biological, Cat #: 16139-H02H) (human, UniProt Q9UM44 23-344)
T6 construct: extracellular domain; Bought
T6 sequence (looked up): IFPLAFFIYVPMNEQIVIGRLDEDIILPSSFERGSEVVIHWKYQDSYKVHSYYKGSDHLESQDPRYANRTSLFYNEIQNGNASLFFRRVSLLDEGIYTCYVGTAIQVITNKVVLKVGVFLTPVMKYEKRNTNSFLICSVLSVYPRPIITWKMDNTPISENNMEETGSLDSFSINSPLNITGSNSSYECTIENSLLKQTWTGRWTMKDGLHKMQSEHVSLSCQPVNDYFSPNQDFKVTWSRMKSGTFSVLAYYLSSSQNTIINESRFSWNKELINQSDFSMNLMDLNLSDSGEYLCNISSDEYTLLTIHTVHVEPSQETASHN


Key:
Test in all cases: ELISA on plate-coated recombinant B7 family proteins (1 ug/ml)
[1] = molecular target: T1, B7-1 (Sino Biological, Cat #: …)
Procedure: (§1) Specifically, after diluting the recombinant human B7 family proteins at a concentration of 1 µg/ml and putting them in a 96-well plate (Nunc-Immuno Plates, NUNC) in 100 µl per well, it was reacted at 4° C. for 16 hrs for coating. The recombinant proteins used in Example 1 was used.
(§2) Then, after removing proteins and washing it with PBST, 200 µl of PBS buffer comprising 1% BSA (bovine serum albumin) was put per well and it was reacted at 37° C. for 2 hrs to block non-specific binding. Then, after diluting the anti-B7-H3 antibodies prepared in Example 2 in 10 µg/ml on a 96-well plate, 100 µl was put per well and it was reacted at 37° C. for 1 hr. Then after it was washed with PBST. In order to detect antibodies bound to an antigen, HRP-connected anti-human IgG F(ab')2 antibody (Goat anti-Human IgG F(ab')2 Cross-Adsorbed Secondary Antibody, HRP, Pierce, 31414) was diluted in PBS comprising 1% bovine serum albumin (BSA) by 1:10,000. 100 µl was put per well and it was reacted at 37° C. for about 1 hr. After washing it with PBST again, TMB (Tetramethylbenzidine, Sigma, T0440) 100 µl was put to develop color. After reacting it at RT for 5-10 min, 50 µl of H_2SO_4 was put to finish the reaction, and the absorbance at 450 nm and 650 nm was measured by using a micro plate reader (molecular device).

[2] = molecular target: T2, B7-2 (Sino Biological, Cat #: …)
Procedure: as §1, §2

[3] = molecular target: T3, B7-DC (Sino Biological, Cat #: …)
Procedure: as §1, §2

[4] = molecular target: T7, B7-H1 (Sino Biological, Cat #: 10084-H08H) (human, UniProt Q9NZQ7 partial chain)
T7 construct: extracellular domain; Bought
Procedure: as §1, §2

[5] = molecular target: T4, B7-H5 (Sino Biological, Cat #: …)
Procedure: as §1, §2

[6] = molecular target: T5, B7-H6 (Sino Biological, Cat #: …)
Procedure: as §1, §2

[7] = molecular target: T6, B7-H7 (Sino Biological, Cat #: …)
Procedure: as §1, §2

T7 sequence (Q9NZQ7 19-238): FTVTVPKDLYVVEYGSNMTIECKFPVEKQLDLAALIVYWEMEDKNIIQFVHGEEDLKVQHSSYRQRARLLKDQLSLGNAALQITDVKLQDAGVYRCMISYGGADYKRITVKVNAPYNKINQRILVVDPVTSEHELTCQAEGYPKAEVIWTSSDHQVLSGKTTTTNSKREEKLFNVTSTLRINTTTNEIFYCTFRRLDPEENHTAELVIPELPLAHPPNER

Row | binding result [1] | binding result [2] | binding result [3] | binding result [4] | binding result [5] | binding result [6] | binding result [7] | Binder
1 | no binding | no binding | no binding | no binding | no binding | no binding | no binding | anti-B7-H3 antibody D8G (full IgG form) (antibody) heavy: EVQLLESGGGLVQPGGSLRLSCAASGFTFSSYSMSWVRQAPGKGLEWVSGIYSDGSNTYYADSVKGRFTISRDNSKNTLYLQMNSLRAEDTAVYYCAKMLHRFDYWGQGTLVTVSS[human IgG1 constant region not shown] light: QSVLTQPPSASGTPGQRVTISCSGSSSNIGSNSVTWYQQLPGTAPKLLIYADSQRPSGVPDRFSGSKSGTSASLAISGLRSEDEADYYCGTWDSSLNAYVFGGGTKLTVLGQPKAAPSVTLFPPSSEELQANKATLVCLISDFYPGAVTVAWKADSSPVKAGVETTTPSKQSNNKYAASSYLSLTPEQWKSHRSYSCQVTHEGSTVEKTVAPAECS
2 | no binding | no binding | no binding | no binding | no binding | no binding | no binding | anti-B7-H3 antibody B5 (full IgG form) (antibody) heavy: EVQLLESGGGLVQPGGSLRLSCAASGFTFSDYAMSWVRQAPGKGLEWVSSISSGSGSIYYADSVKGRFTISRDNSKNTLYLQMNSLRAEDTAVYYCAKNLIPLDYWGQGTLVTVSS[human IgG1 constant region not shown] light: QSVLTQPPSASGTPGQRVTISCSGSSSNIGSNAVSWYQQLPGTAPKLLIYYNSHRPSGVPDRFSGSKSGTSASLAISGLRSEDEADYYCGSWDASLNAYVFGGGTKLTVLGQPKAAPSVTLFPPSSEELQANKATLVCLISDFYPGAVTVAWKADSSPVKAGVETTTPSKQSNNKYAASSYLSLTPEQWKSHRSYSCQVTHEGSTVEKTVAPAECS
3 | no binding | no binding | no binding | no binding | no binding | no binding | no binding | anti-B7-H3 antibody F6V (full IgG form) (antibody) heavy: EVQLLESGGGLVQPGGSLRLSCAASGFTFSDYAMSWVRQAPGKGLEWVSGISPGGSNTYYADSVKGRFTISRDNSKNTLYLQMNSLRAEDTAVYYCAKDAWIARLLLFDYWGQGTLVTVSS[human IgG1 constant region not shown] light: QSVLTQPPSASGTPGQRVTISCSGSSSNIGSNAVTWYQQLPGTAPKLLIYYNNKRPSGVPDRFSGSKSGTSASLAISGLRSEDEADYYCGTWDDSLSGYVFGGGTKLTVLGQPKAAPSVTLFPPSSEELQANKATLVCLISDFYPGAVTVAWKADSSPVKAGVETTTPSKQSNNKYAASSYLSLTPEQWKSHRSYSCQVTHEGSTVEKTVAPAECS
4 | no binding | no binding | no binding | no binding | no binding | no binding | no binding | anti-B7-H3 antibody C4I (full IgG form) (antibody, also called C41) heavy: EVQLLESGGGLVQPGGSLRLSCAASGFTFSGYYMSWVRQAPGKGLEWVSLISPSSGSIYYADSVKGRFTISRDNSKNTLYLQMNSLRAEDTAVYYCAKGLTKFDYWGQGTLVTVSS[human IgG1 constant region not shown] light: QSVLTQPPSASGTPGQRVTISCTGSSSNIGSNDVSWYQQLPGTAPKLLIYANSHRPSGVPDRFSGSKSGTSASLAISGLRSEDEADYYCGSWDDSLSGYVFGGGTKLTVLGQPKAAPSVTLFPPSSEELQANKATLVCLISDFYPGAVTVAWKADSSPVKAGVETTTPSKQSNNKYAASSYLSLTPEQWKSHRSYSCQVTHEGSTVEKTVAPAECS
5 | no binding | no binding | no binding | no binding | no binding | no binding | no binding | anti-B7-H3 antibody 10F11 (full IgG form) (antibody) heavy: EVQLLESGGGLVQPGGSLRLSCAASGFTFSSYGMSWVRQAPGKGLEWVSGIYSGGSSKYYADSVKGRFTISRDNSKNTLYLQMNSLRAEDTAVYYCAKNRLRFDYWGQGTLVTVSS[human IgG1 constant region not shown] light: QSVLTQPPSASGTPGQRVTISCTGSSSNIGSNSVTWYQQLPGTAPKLLIYSDSHRPSGVPDRFSGSKSGTSASLAISGLRSEDEADYYCGTWDASLNAYVFGGGTKLTVLGQPKAAPSVTLFPPSSEELQANKATLVCLISDFYPGAVTVAWKADSSPVKAGVETTTPSKQSNNKYAASSYLSLTPEQWKSHRSYSCQVTHEGSTVEKTVAPAECS
